Laboratory results: PubChem BioAssay (NCATS)
This is one part of the list. The main result of the screen is listed elsewhere. These columns were measured beside it and carry no call. Compounds called inactive in the main read-out are mostly missing here. Potencies come from curve fits of mixed quality, noted in brackets.
Tags tell the direction and shape of the fitted curve.

Test: qHTS Assay for Lipid Storage Modulators (AID 1519)
Details: Drosophila S3 cells, BODIPY lipid droplet/cell ratio, laser cytometry; measured here: cell number channel AC50; cells loaded with oleic acid
Summary of the method: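 Cells seeded at 5,000 per well were treated with compounds over a concentration series and loaded with oleic acid (400 uM, as added). Lipid droplet fluorescence (488 nm excitation, 500-530 nm channel) was read by laser-scanning cytometry and normalized to 20 uM Triacsin C.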
With `CCNc1ncc2nc(-c3ccc(OC)cc3)c(=O)n(Cc3ccc(F)cc3)c2n1` the AC50 was 0.794 µM [rising, partial curve].
For `O=C(OCCN1CCOCC1)C1(c2ccccc2)CCCCC1`, the AC50 was 7.08 µM [falling, full curve, poor fit].
In the case of `O=C(c1ccncc1)N1CCC[C@@]2(CCN(Cc3ccccc3)C2)C1`, the AC50 is reported as 15.8 µM [rising, partial curve, poor fit].
For `COCCn1c(=O)c(-c2cccc(C#N)c2)nc2cnc(N3CCNCC3)nc21`, the AC50 was 3.98 µM [rising, partial curve].
For `COc1ncc2nc(-c3ccc(Cl)cc3)c(=O)n(CCC#N)c2n1`, the AC50 was 0.0501 µM [rising, full curve, poor fit].
For `COc1ncc2nc(-c3ccccc3)c(=O)n(CCC#N)c2n1`, the AC50 was 1.78 µM [rising, full curve].
For `Cc1ccc(-c2nn(CC(C)(C)C)c3ncnc(N)c23)cc1`, the AC50 was 31.6 µM [rising, partial curve, poor fit].
With `CS(=O)(=O)Nc1ccc([N+](=O)[O-])cc1OC1CCCCC1` the AC50 was 35.5 µM [rising, single point].
With `COCCn1c(=O)c(-c2ccc(OC)cc2)nc2cnc(OC)nc21` the AC50 was 0.0141 µM [rising, full curve, poor fit].
For `C[C@H]1[C@H](C)CC[C@]2(C(=O)O)CC[C@]3(C)C(=CCC4[C@@]5(C)CC[C@H](O)C(C)(C)[C@@H]5CC[C@]43C)[C@H]12` (stereo not given in full), the AC50 was 35.5 µM [rising, partial curve, poor fit].
